{"source": "the supplement of paper PMC3334620", "note": "In all, about 33,000 sequences were measured (“E-score (-0.5 to 0.5)”: median about -0.011, highest 2% from about 0.28 on). The list shows a part of the results."}
{"target": "T1, Gcr1 (UniProt P07261)", "T1 sequence": "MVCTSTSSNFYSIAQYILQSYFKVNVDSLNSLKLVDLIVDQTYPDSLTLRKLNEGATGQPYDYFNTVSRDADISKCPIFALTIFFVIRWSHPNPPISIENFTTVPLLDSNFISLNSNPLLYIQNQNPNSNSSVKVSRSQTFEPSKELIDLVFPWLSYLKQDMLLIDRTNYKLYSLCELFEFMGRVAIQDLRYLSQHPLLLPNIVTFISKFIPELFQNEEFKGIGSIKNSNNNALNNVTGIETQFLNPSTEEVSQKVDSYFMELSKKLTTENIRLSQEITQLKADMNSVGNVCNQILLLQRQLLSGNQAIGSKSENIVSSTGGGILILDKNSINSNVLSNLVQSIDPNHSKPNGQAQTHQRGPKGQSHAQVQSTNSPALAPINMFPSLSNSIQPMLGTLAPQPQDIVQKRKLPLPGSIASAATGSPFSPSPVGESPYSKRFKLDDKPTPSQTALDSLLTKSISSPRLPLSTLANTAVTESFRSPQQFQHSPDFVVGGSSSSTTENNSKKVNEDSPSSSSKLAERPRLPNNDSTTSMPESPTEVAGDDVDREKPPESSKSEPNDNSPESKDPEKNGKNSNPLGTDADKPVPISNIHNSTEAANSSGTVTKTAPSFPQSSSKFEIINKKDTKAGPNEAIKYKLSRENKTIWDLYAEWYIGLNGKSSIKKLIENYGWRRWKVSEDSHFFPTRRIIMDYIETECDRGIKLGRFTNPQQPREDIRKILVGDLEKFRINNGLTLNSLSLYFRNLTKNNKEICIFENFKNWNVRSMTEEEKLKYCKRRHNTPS", "experiment": "PBM E-score (8-mer binding enrichment) (E-score (-0.5 to 0.5)); higher = stronger / more preferred TF binding; most listed sequences are background and not binding sites", "settings": "protein concentration: 100 nM; construct: GST-full length", "description": "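Universal 'all 10-mer' protein binding microarrays (Agilent AMADID 015681) probed with GST-tagged S. cerevisiae TFs (full-length or DBD) made by in vitro transcription/translation (PURExpress), about 100-200 nM. Bound TF was detected with fluorescent anti-GST. Each ungapped 8-mer (which stands for itself and its reverse complement) is scored by the PBM enrichment score (E-score), a modified Wilcoxon-Mann-Whitney statistic from -0.5 to +0.5, computed with the Universal PBM Analysis Suite. Scale: above 0.35 generally sequence-specific binding.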"}
{"sequence": "CGTGTCGA", "PBM E-score": -0.121}
{"sequence": "AGCCTACC", "PBM E-score": -0.167}
{"sequence": "AAGCATAT", "PBM E-score": 0.015}
{"sequence": "AACCTTCA", "PBM E-score": -0.145}
{"sequence": "AGGAGTTG", "PBM E-score": 0.0863}
{"sequence": "CAAAGCCC", "PBM E-score": -0.32}
{"sequence": "ACGTGGAC", "PBM E-score": -0.129}
{"sequence": "CGGCTAGA", "PBM E-score": -0.00491}
{"sequence": "ACCGGACA", "PBM E-score": -0.182}
{"sequence": "TACTCCCA", "PBM E-score": 0.0425}
{"sequence": "CGCATATC", "PBM E-score": -0.0076}
{"sequence": "CAGGCTAC", "PBM E-score": 0.00714}
{"sequence": "CTGGTCAC", "PBM E-score": -0.243}
{"sequence": "CCACACCC", "PBM E-score": 0.019}
{"sequence": "CATGATCG", "PBM E-score": -0.161}
{"sequence": "GCCCCAGA", "PBM E-score": 0.0891}
{"sequence": "AAGTCTAC", "PBM E-score": 0.0258}
{"sequence": "CCGCACTC", "PBM E-score": -0.121}
{"sequence": "ATAAATTC", "PBM E-score": -0.0132}
{"sequence": "AACAAGGT", "PBM E-score": 0.0443}
{"sequence": "CGCTTCGC", "PBM E-score": -0.00886}
{"sequence": "AAGTTCAC", "PBM E-score": 0.00847}
{"sequence": "CAACTCCC", "PBM E-score": -0.175}
{"sequence": "CCGAGAAG", "PBM E-score": 0.209}
{"sequence": "CCGACAAA", "PBM E-score": -0.0267}
{"sequence": "AGTTCACG", "PBM E-score": -0.161}
{"sequence": "CCTGGCGC", "PBM E-score": -0.0793}
{"sequence": "CCTGTCTA", "PBM E-score": 0.0224}
{"sequence": "CCGCTCGA", "PBM E-score": -0.284}
{"sequence": "AACCGAAC", "PBM E-score": 0.091}
{"sequence": "CGCAAGTA", "PBM E-score": -0.0406}
{"sequence": "ATAGTGTC", "PBM E-score": 0.0171}
{"sequence": "CGGTGAGC", "PBM E-score": -0.0162}
{"sequence": "AGCTAGTG", "PBM E-score": 0.0791}
{"sequence": "GTTAAGAA", "PBM E-score": 0.0146}
{"sequence": "ATTCACGG", "PBM E-score": -0.14}
{"sequence": "CCTCGTGA", "PBM E-score": -0.101}
{"sequence": "GCGGAGAA", "PBM E-score": -0.176}
{"sequence": "TGTTATAA", "PBM E-score": 0.13}
{"sequence": "AATGGACA", "PBM E-score": 0.0759}
{"sequence": "CCCTGTAC", "PBM E-score": -0.0614}
{"sequence": "AACCCAAT", "PBM E-score": 0.0924}
{"sequence": "CAACCCAC", "PBM E-score": 0.0361}
{"sequence": "ATTTCTTG", "PBM E-score": 0.0771}
{"sequence": "CATCATGC", "PBM E-score": 0.066}
{"sequence": "AAGCGGAA", "PBM E-score": 0.209}
{"sequence": "GTAAGCCA", "PBM E-score": 0.0101}
{"sequence": "ATCCATCC", "PBM E-score": -0.153}
{"sequence": "ACAAGGTC", "PBM E-score": -0.199}
{"sequence": "AAGTCCAT", "PBM E-score": -0.156}
{"sequence": "GACGCAAC", "PBM E-score": 0.0918}
{"sequence": "CCTCGAAC", "PBM E-score": 0.0863}
{"sequence": "CTCTCGGA", "PBM E-score": 0.0485}
{"sequence": "CATCACCG", "PBM E-score": -0.184}
{"sequence": "CGGATCTC", "PBM E-score": -0.23}
{"sequence": "TCTGAAAA", "PBM E-score": 0.235}
{"sequence": "CATATAAA", "PBM E-score": 0.208}
{"sequence": "GAGCCACC", "PBM E-score": 0.0883}
{"sequence": "ATGCAAAA", "PBM E-score": 0.067}
{"sequence": "GCACTTCA", "PBM E-score": -0.0668}
{"sequence": "GAGTTACA", "PBM E-score": -0.0793}
{"sequence": "ATATTCTC", "PBM E-score": -0.0679}
{"sequence": "CATATGAC", "PBM E-score": -0.0287}
{"sequence": "CCCATCCG", "PBM E-score": -0.101}
{"sequence": "CATTATGC", "PBM E-score": -0.0741}
{"sequence": "AGTGAAAC", "PBM E-score": -0.14}
{"sequence": "CCCATATA", "PBM E-score": 0.0585}
{"sequence": "GGGACACA", "PBM E-score": -0.0586}
{"sequence": "CGCGCGCG", "PBM E-score": -0.0507}
{"sequence": "ATACTCGA", "PBM E-score": 0.13}
{"sequence": "CTGTAGAC", "PBM E-score": -0.0134}
{"sequence": "TTACACAA", "PBM E-score": 0.164}
{"sequence": "CTGGATTA", "PBM E-score": 0.246}
{"sequence": "TCGCTGCA", "PBM E-score": -0.16}
{"sequence": "ACATGGGC", "PBM E-score": -0.104}
{"sequence": "CGCTGTAC", "PBM E-score": -0.0548}
{"sequence": "ACCCTTCT", "PBM E-score": 0.101}
{"sequence": "TCCGCTAA", "PBM E-score": 0.146}
{"sequence": "CGCCGTCA", "PBM E-score": -0.0681}
{"sequence": "AACGTAGC", "PBM E-score": 0.0816}
{"sequence": "ATGACTTA", "PBM E-score": 0.114}
{"sequence": "GCTGCTCC", "PBM E-score": 0.17}
{"sequence": "GAGCGCGA", "PBM E-score": -0.0373}
{"sequence": "CACGGAAG", "PBM E-score": -0.115}
{"sequence": "ATTTACGA", "PBM E-score": 0.182}
{"sequence": "GAGTGATC", "PBM E-score": -0.0286}
